Results reported in US20210363269A1 (ALX ONCOLOGY, published 2021).

Key:
[1] = target: T1, human SIRP-α v1 D1 domain (human, UniProt P78324 31-149); assay: SPR, captured scFv-Fc, 100 nM analyte
T1 construct: also called human v1; human α v1

[2] = target: T2, human SIRPβ isoform 1 (human, UniProt O00241 30-148); assay: SPR, captured scFv-Fc, 100 nM analyte
T2 construct: also called sirpb1; Sirpb1

[3] = target: T3, cynomolgus SIRP-α D1 domain (SEQ ID NO:12) (cynomolgus, UniProt Q5TFQ8 30-148 (human entry), limits assumed); assay: SPR, captured scFv-Fc, 100 nM analyte
T3 construct: also called cyno2; Cyno2
T3 chain: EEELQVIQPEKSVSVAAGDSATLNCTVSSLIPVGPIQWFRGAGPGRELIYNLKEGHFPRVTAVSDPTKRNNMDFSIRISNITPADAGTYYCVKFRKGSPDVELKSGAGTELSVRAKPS

[4] = target: T4, human SIRP-α v2 D1 domain (human); assay: SPR, captured scFv-Fc, 100 nM analyte
T4 construct: also called human v2; human α v2

[5] = target: T5, cynomolgus SIRP-α D1 domain (SEQ ID NO:11) (cynomolgus, UniProt Q5TFQ8 30-148 (human entry), limits assumed); assay: SPR, captured scFv-Fc, 100 nM analyte
T5 construct: also called cyno1
T5 chain: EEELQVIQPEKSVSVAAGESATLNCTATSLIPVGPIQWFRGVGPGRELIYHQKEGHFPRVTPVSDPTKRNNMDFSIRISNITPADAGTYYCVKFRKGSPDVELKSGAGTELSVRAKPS

[6] = target: T6, high affinity SIRP-α D1 variant CV1-3 (human); assay: SPR, captured scFv-Fc
T6 chain: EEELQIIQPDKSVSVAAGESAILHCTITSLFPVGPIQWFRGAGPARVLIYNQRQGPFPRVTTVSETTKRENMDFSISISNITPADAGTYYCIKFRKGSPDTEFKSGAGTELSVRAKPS
How it was run: (§1)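 scFv-Fc antibody clones were captured from pre-filtered culture media onto anti-human IgG Fc, amine-coupled at about 4000 RU on a GLC chip in a ProteOn XPR36 instrument. SIRP analytes were passed over in PBS pH 7.4 with 0.01% Tween-20 at 25° C, and responses were double-referenced against interspot and buffer-blank signals. Curves were fitted to a 1:1 Langmuir model. Dissociation rate constants (koff) were taken from those fits.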

[7] = target: T7, NOD mouse SIRP-α D1 domain (mouse (NOD strain)); assay: SPR, captured scFv-Fc
T7 chain: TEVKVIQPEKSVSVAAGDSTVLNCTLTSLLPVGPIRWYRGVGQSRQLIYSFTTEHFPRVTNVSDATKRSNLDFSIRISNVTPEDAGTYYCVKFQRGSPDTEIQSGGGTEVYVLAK
How it was run: as §1

[8] = target: T8, mouse 129 SIRP-α D1 domain (mouse (129 strain), UniProt P97797 32-150); assay: SPR, captured scFv-Fc
T8 construct: also called m129
T8 chain: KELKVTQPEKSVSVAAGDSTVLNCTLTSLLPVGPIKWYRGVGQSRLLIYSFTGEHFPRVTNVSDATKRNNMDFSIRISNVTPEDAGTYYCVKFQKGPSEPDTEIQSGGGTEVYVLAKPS
How it was run: as §1

[9] = target: T9, C57BL/6 mouse SIRP-α D1 domain (mouse (C57BL/6 strain), UniProt P97797 32-148); assay: SPR, captured scFv-Fc
T9 sequence: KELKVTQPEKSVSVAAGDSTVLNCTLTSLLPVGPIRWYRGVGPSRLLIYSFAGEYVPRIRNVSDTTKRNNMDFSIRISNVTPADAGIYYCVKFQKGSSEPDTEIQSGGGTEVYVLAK
How it was run: as §1

[10] = target: T10, human SIRPγ isoform 1 (human, UniProt Q9P1W8 29-147); assay: SPR, captured scFv-Fc
T10 construct: also called sirpg; sirp-g
How it was run: as §1

T10 sequence (Q9P1W8 29-147 limits assumed): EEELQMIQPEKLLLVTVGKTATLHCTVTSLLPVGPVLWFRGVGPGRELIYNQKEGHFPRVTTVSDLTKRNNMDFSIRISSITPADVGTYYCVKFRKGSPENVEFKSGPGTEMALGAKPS
T1 sequence (P78324 31-149 limits assumed): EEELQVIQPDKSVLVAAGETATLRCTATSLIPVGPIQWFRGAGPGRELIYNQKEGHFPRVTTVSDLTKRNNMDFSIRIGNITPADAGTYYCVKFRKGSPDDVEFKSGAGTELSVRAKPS
T2 sequence (O00241 30-148 limits assumed): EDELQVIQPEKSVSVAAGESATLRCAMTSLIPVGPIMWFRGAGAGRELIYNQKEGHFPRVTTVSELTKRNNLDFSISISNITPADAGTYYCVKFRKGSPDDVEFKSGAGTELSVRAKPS

koff [1]: 0.00459 s⁻¹
koff [2]: 0.00421 s⁻¹
koff [3]: 0.0147 s⁻¹
koff [4]: 0.00211 s⁻¹
koff [5]: 0.0152 s⁻¹
binding result [6]: no binding (tested: 100 nM)
binding result [7]: no binding (tested: 100 nM)
binding result [8]: no binding (tested: 100 nM)
binding result [9]: no binding (tested: 100 nM)
binding result [10]: no binding (tested: 100 nM)
B1: S128 scFv-Fc (scFv)
scFv: ETVLTQSPATLSVSPGERATLSCRASQTVGSKLAWHQQKPGQAPRLLIYDASNRATGIPDRFSGSGSGTDFTLTISSLQTEDSAVYYCQQYYYWPPYRFGGGTKVEIKGQSSRSSGGGGSSGGGGSDVQLVESGGGVVRPGESLRLSCAASGFSFRSYAMNWVRQAPGEGLEWVSRIDSGGGGTDYADSVKGRFTISRDNSKNTLYLQMNSLRAEDTAVYYCAKQYDWNSFFDYWGLGAPVTVSSSL[letters of human IgG1 Fc with C220S (EU numbers) and a few adjoining residues left out]
notes: scFv-Fc, whole chain in the entry; Human framework
